The supplement of paper PMC7826260
Some of the results follow. Viral Rep nickase domains cut single-stranded DNA in vitro for 1 h at 37 °C with 3 µM enzyme; only the middle of the 90-letter strands is printed. Uncut reads are compared with the no-enzyme pool on a log2 scale; uncut sequences lie near 0, cut ones below; no hit call is given. Shares of all reads are compared; uncut strands gain when others are lost, and binding without cutting may add a little.

Experiments:
Experiment in all cases: uncleaved DNA left, log2 of reads against the no-enzyme library (log2 ratio); higher = less cleavage (more negative = more Rep cleavage of the k-mer); sequences stand for … in CTCGTCCG…ACCGGAGA
[1] = test system: T1, Rep nickase domain of Muscovy duck circovirus
T1 sequence (residues 1-111 of Rep, tag left off): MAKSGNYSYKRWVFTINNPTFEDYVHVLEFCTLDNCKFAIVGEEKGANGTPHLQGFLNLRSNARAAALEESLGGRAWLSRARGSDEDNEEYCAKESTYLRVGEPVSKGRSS
Experimental: (§1)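 A pool of 90-nt single-stranded DNAs with seven random bases just before the constant AC of the nick site (name = the seven bases) was cut by 3 µM recombinant His6-SUMO-tagged Rep nickase domain (300 nM DNA, 50 mM HEPES pH 8.0, 50 mM NaCl, 1 mM MnCl2, 1 h, 37 °C, three replicates). Uncut DNA was amplified and sequenced.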

[2] = test system: T2, Rep nickase domain of banana bunchy top virus
T2 sequence (residues 1-94 of Rep, tag left off): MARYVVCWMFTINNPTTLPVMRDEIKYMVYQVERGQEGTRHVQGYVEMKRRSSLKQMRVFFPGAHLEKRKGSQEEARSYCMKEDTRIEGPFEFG
Experimental: as §1

[3] = test system: T3, Rep nickase domain of cabbage leaf curl virus
T3 sequence (residues 1-116 of Rep, tag left off): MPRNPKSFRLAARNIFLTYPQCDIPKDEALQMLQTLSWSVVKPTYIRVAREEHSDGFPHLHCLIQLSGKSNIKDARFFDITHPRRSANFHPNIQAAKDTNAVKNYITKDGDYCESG
Experimental: as §1

[4] = test system: T4, Rep nickase domain of chickpea chlorotic dwarf virus
T4 sequence (residues 1-124 of Rep, tag left off): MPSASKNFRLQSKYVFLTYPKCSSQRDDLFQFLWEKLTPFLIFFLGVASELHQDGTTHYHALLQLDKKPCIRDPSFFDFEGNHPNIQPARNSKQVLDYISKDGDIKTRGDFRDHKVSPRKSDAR
Experimental: as §1

[5] = test system: T5, Rep nickase domain of faba bean necrotic yellows virus
T5 sequence (residues 1-98 of Rep, tag left off): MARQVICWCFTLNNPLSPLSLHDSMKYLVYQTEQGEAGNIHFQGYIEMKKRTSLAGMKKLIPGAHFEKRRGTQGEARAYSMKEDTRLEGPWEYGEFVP
Experimental: as §1

[6] = test system: T6, Rep nickase domain of maize striate mosaic virus
T6 sequence (residues 1-117 of Rep, tag left off): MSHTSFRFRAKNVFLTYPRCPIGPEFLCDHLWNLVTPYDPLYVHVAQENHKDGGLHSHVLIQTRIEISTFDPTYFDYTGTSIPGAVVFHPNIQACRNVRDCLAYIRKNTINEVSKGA
Experimental: as §1

[7] = test system: T7, Rep nickase domain of porcine circovirus 2
T7 sequence (residues 2-116 of Rep, tag left off): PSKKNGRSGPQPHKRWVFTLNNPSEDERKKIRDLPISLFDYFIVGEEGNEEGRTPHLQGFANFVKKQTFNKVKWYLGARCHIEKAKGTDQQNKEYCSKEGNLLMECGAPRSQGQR
Experimental: as §1

[8] = test system: T8, Rep nickase domain of tomato golden mosaic virus
T8 sequence (residues 1-124 of Rep, tag left off): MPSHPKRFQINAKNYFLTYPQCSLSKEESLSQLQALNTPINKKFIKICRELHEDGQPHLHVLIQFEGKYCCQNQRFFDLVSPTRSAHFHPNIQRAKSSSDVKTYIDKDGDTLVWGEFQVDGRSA
Experimental: as §1

[9] = test system: T9, Rep nickase domain of tomato yellow leaf curl virus
T9 sequence (residues 1-136 of Rep, tag left off): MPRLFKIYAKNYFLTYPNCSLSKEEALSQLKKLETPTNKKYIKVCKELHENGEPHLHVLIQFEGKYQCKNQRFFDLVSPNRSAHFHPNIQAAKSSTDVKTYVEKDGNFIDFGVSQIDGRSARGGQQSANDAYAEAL
Experimental: as §1

[10] = test system: T10, Rep nickase domain of wheat dwarf virus
T10 sequence (residues 1-137 of Rep, tag left off): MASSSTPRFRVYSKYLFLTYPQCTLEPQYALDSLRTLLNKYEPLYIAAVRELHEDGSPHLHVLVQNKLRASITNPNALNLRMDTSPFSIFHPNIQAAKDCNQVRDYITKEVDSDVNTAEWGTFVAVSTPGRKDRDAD
Experimental: as §1

Sequence | uncleaved DNA left (log2) [1] | uncleaved DNA left (log2) [2] | uncleaved DNA left (log2) [3] | uncleaved DNA left (log2) [4] | uncleaved DNA left (log2) [5] | uncleaved DNA left (log2) [6] | uncleaved DNA left (log2) [7] | uncleaved DNA left (log2) [8] | uncleaved DNA left (log2) [9] | uncleaved DNA left (log2) [10]
CACGACC | 0.0184 | -0.00552 | -0.0619 | 0.168 | 0.025 | -0.495 | -0.0393 | 0.0848 | -0.0927 | 0.0469
GAGAGCG | -0.018 | 0.0421 | -0.584 | -0.387 | 0.0647 | -0.995 | 0.221 | 0.0326 | 0.0733 | -0.0343
TGCTCTG | -0.0446 | -0.059 | -0.0397 | 0.417 | 0.102 | 1.08 | 0.0752 | -0.0148 | -0.0671 | 0.0172
GAGTGAG | -0.0917 | -0.176 | -0.539 | -0.255 | 0.0498 | -0.583 | 0.0287 | 0.0032 | 0.0225 | 0.0299
TCAGGAT | 0.00287 | 0.0767 | 0.152 | 1.45 | 0.141 | 1.85 | 0.111 | 0.126 | -0.174 | 0.0137
AACCTCA | -0.0606 | -0.112 | 0.0219 | -1.79 | -0.0968 | -0.233 | -0.339 | -0.0956 | -0.0486 | 0.0227
AAACGCA | 0.0148 | 0.0548 | -0.208 | -1.1 | 0.0357 | -0.669 | 0.0632 | 0.0113 | -0.0291 | 0.00946
CCACCAT | -0.00101 | -0.0581 | 0.0449 | -1.2 | 0.0348 | -0.502 | -0.103 | -0.0209 | 0.0485 | 0.0789
ATTCTCT | -0.451 | -0.108 | 0.00938 | -2.01 | 0.102 | -0.504 | -1.24 | -0.0196 | 0.0626 | 0.0649
CTGGATT | 0.234 | 0.164 | 0.302 | 0.498 | 0.209 | 1.57 | -0.0528 | 0.177 | 0.273 | 0.301
CGGGGGG | 0.109 | -0.0655 | 0.178 | 0.446 | 0.0963 | 0.378 | 0.0623 | 0.16 | -0.0316 | -0.0599
CCAAGCA | -0.0512 | 0.0217 | 0.117 | 1.09 | -0.0392 | 0.887 | 0.167 | 0.0124 | -0.135 | 0.0444
TCGAGAA | 0.0934 | 0.0336 | 0.439 | 0.53 | 0.139 | 0.2 | -0.434 | 0.0269 | 0.0263 | 0.0523
ATCCGAA | -0.0193 | -0.177 | 0.014 | 0.22 | -0.0895 | -0.436 | -0.00858 | -0.0933 | -0.126 | -0.0115
AATGTCG | 0.158 | 0.103 | -0.649 | 0.422 | 0.161 | -0.642 | 0.185 | 0.00969 | 0.155 | 0.0258
AAACAGA | -0.037 | 0.0306 | -0.125 | -0.811 | 0.0604 | -0.923 | 0.157 | -0.0106 | -0.0188 | -0.0446
CCCCTAC | -0.0883 | -0.117 | -0.247 | -1.84 | -0.0198 | -0.916 | -0.187 | 0.00384 | -0.191 | -0.231
ACTGAAA | -0.109 | -0.0764 | -0.135 | 0.601 | -0.0549 | 0.202 | -0.103 | -0.0535 | -0.188 | 0.0918
GTCACTA | -0.00325 | 0.0496 | 0.239 | 0.859 | -0.0183 | 1.65 | 0.0299 | 0.175 | 0.135 | 0.0508
TTCAATT | -0.0291 | 0.0486 | 0.0268 | -2.08 | -0.00851 | 0.153 | -1.12 | -0.135 | 0.000124 | 0.0361
GGAATCT | 0.131 | 0.131 | 0.474 | 1.08 | 0.113 | 1.94 | 0.146 | 0.0929 | 0.108 | 0.181
CAGGGTC | -0.00102 | -0.149 | 0.187 | 0.647 | -0.0488 | 0.899 | -0.0122 | -0.0293 | -0.0298 | -0.0102
CCCATTA | -0.0964 | -0.0257 | -0.141 | -1.26 | -0.0499 | -1.02 | -0.00869 | -0.00494 | -0.0901 | -0.114
GATTGGA | -0.103 | 0.0129 | -0.013 | 0.146 | -0.0414 | -0.208 | -0.276 | 0.147 | 0.108 | -0.017
TGGGGTA | 0.164 | 0.112 | 0.662 | 1.32 | 0.135 | 1.9 | 0.304 | 0.147 | 0.173 | 0.3
CTTGTCG | 0.0815 | 0.0174 | -0.902 | -0.473 | -0.13 | -1.06 | 0.168 | -0.121 | -0.0105 | -0.0254
TACGCCT | -0.137 | -0.147 | -1.88 | -2.66 | -0.0656 | -0.798 | -0.584 | -0.238 | -0.108 | -0.251
GCTTGGG | -0.165 | 0.0236 | -0.614 | -0.542 | -0.13 | -0.773 | 0.137 | -0.0206 | 0.0769 | -0.127
AATATAC | 0.0167 | -0.0279 | -0.0549 | -0.944 | 0.00042 | -0.841 | 0.0488 | 0.000593 | -0.0179 | -0.00462
GCACACC | -0.00967 | -0.00307 | -0.0366 | 0.029 | -0.0431 | -0.0487 | -0.0643 | 0.00645 | -0.00509 | 0.039
